The test system of this assay is NCI-H322M lung. Nature of the assay: NCI-60 cell line screen, 48 h.

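Five compound concentrations were applied to cells in 96-well plates for 48 hours; endpoints were derived by simple linear interpolation of the resulting dose-response curve. The concentration for 50% growth inhibition is given as GI50. TGI: total growth inhibition.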

On to `O=C1Nc2cc(-c3ccc(NS(=O)(=O)c4ccc(C(F)(F)F)cc4)cc3)ccc2/C1=C/c1ccc[nH]1`, for which the GI50 was 1.32 µM and the TGI is 6.64 µM.
On to `O=C1Nc2ccc(Cl)cc2/C1=C/c1ccc(OCc2ccc(Br)cc2F)cc1`, for which the GI50 was 3.8 µM and the TGI was determined as 21 µM.

The values above are taken from PubChem BioAssay (NCI).
